Source: PubChem BioAssay (Tox21)
“And” between values parts separate entries of the source, which are not always exact repeats. Identical values can stand only once. The shares of active, inactive and inconclusive entries below differ from those in the screen. Where the call is inconclusive, the potency comes from a doubtful curve fit. The source made the active and inactive calls. Calls come from the whole dose curve; as a rule, active = well fitted cell-killing curve with a large enough effect in the repeat runs; inconclusive = weak or mixed curves, or effect the other way; inactive = no such curve, though single readings can be large or run the other way.

assay: qHTS assay to identify small molecule agonists of the RXR signaling pathway - cell viability counter screen (AID 1159529); conditions: RXR-alpha-bla HEK293T viability, CellTiter-Glo, 16 h; series mostly up to 76.8 µM; activity change, negative = cytotoxicity: at the top concentration; note: nearly all actives have a fitted effect of over 50% in size
Excerpt: National Center for Advancing Translational Sciences [NCATS]
NIH Chemical Genomics Center [NCGC]
U.S. Environmental Protection Agency [EPA]
National Institutes of Environmental Health Sciences [NIEHS]
National Toxicology Program [NTP]
U.S. Food and Drug Administration [FDA]
The Retinoid X receptor (RXR), a nuclear hormone receptor expressed in liver, spleen, placenta, epidermis, central nervous system. These receptors are able to form homo and heterodimers with other nuclear receptors and due to this heterodimerizing ability, RXR functions as master regulators producing diverse physiological effects. Three subtypes of RXR exist; alpha, beta and gamma. Retinoid X receptor alpha (RXR-alpha) has potential roles in metabolic signaling pathways, skin alopecia, dermal cysts, cardiac development, insulin sensitization etc. Therefore screening environmental chemicals on RXR-alpha signaling can be used for the studies focused on such therapeutic applications. For quantification of RXR-alpha ligands signaling, GeneBLAzer RXR alpha-UAS-bla HEK 293T (Life Technologies, Carlsbad, CA) cells containing a beta-lactamase reporter-gene under control of Retinoid X receptor-alpha response element were used to screen Tox21 10K library. The cytotoxicity of the Tox21 compound library against the RXR-alpha HEK 293T cell line was tested in parallel by measuring cell viability using CellTiter-Glo assay (Promega Corporation, Madison, WI) in the same wells.
Tox21 Assay Protocol Summary:
RXR-alpha HEK 293T cells were dispensed at 2,000 cells/6 uL of assay medium containing 2% charcoal-stripped FBS using a Multidrop Combi (ThermoFisher Scientific, Waltham, MA) dispenser. The assay was performed in black wall/clear-bottom 1536-well plates (Greiner Bio-One North America Inc. Monroe, NC). Tetraoctyl ammonium bromide was used as a positive control in the cytotoxicity screen. After the assay plates were incubated at 37 C and 5% CO2 for 5 hr, 23 nL of compounds dissolved in DMSO, positive control or DMSO only were transferred to the assay plate by a Pintool station (Kalypsys, San Diego, CA). The assay plates were incubated at 37 C and 5% CO2 for 16 hr. One uL of LiveBLAzer B/G FRET substrate (Life Technologies) was added using a Flying Reagent Dispenser (FRD) (Aurora Discovery, San Diego, CA) and the plates were incubated at room temperature for 2 hr. Fluorescence intensity (405 nm excitation, 460/530 nm emission) was measured using an Envision plate reader (PerkinElmer, Shelton, CT). For cytotoxicity, 4 uL/well of CellTiter-Glo reagent was added into the assay plates using an FRD. After 30 min incubation at room temperature, the luminescence intensity was measured using a ViewLux plate reader (PerkinElmer).
% is set by controls: 0 for no effect and ±100 for the full control effect; potency is the fitted concentration of half-maximal effect; tags give direction and shape of the fitted curve.

SMILES	Potency	activity change, negative = cytotoxicity
CCCCCCCCCCCCCCCS(=O)(=O)Oc1ccccc1	inconclusive: 6.74 µM [cytotoxic, partial curve]	
C#C[C@]1(OC(C)=O)CC[C@H]2[C@@H]3CCC4=C/C(=N/O)CC[C@@H]4[C@H]3CC[C@@]21CC	inconclusive: 26.8 µM [cytotoxic, single point]	
CCC(Cl)C(Cl)C(Cl)CC(Cl)C(Cl)C(C)Cl (stereo not given)	inconclusive: 24.5 µM [cytotoxic, partial curve, poor fit]	
COC(=O)CC(=O)C(C)(C)C	inconclusive: 43.6 µM [cytotoxic, single point]	
C(=C/c1ccccc1)/c1ccccc1		inactive: -1.4%
c1cc2c3c(c1)ccc1cccc(c13)C2	inconclusive: 44.6 µM [cytotoxic, partial curve]	
O[C@@H](COc1cccc2ncccc12)CN1CCN(C2c3ccccc3[C@@H]3[C@H](c4ccccc42)C3(F)F)CC1 (stereo not given in full)	inconclusive: 26.8 µM [cytotoxic, partial curve, poor fit]	
CCCC(C(=O)OCCN(CC)CC)(c1ccccc1)c1ccccc1	inconclusive: 23.9 µM [cytotoxic]	
CCCCN(CCCC)CC(O)c1cc(Cl)cc2c1-c1ccc(Cl)cc1/C2=C/c1ccc(Cl)cc1 (stereo not given)	inconclusive: 26.8 µM [cytotoxic, single point]	
O=C(O)Cn1c(C(=O)Nc2nc(-c3ccccc3Cl)cs2)cc2ccccc21	inconclusive: 26.8 µM [cytotoxic, partial curve, poor fit]	
O=C1c2ccccc2C(=O)c2cc(S(=O)(=O)O)ccc21		inactive: -0.892%
COCCc1ccc(OCC(O)CNC(C)C)cc1 (stereo not given)	inconclusive: 0.549 µM [cytotoxic, partial curve]	
C[C@H](CCC(=O)O)[C@H]1CC[C@H]2[C@@H]3[C@H](O)C[C@@H]4C[C@H](O)CC[C@]4(C)[C@H]3CC[C@]12C	inconclusive: 55.1 µM [cytotoxic, single point]	
C(=C(c1ccccc1)c1ccccc1)c1ccccc1	inconclusive: 43.6 µM [cytotoxic, single point]	
CCc1oc2ccccc2c1C(=O)c1cc(I)c(O)c(I)c1	inconclusive: 6.01 µM [cytotoxic, partial curve]	
C[C@]12CC[C@H]3[C@@H](CCC4=CC(=O)CC[C@@]43C)[C@@H]1CC[C@@H]2C(=O)CO	inconclusive: 5.49 µM [cytotoxic, partial curve, poor fit]	
C=C(C)C(=O)OCC(O)COc1ccc(C(C)(C)c2ccc(OCC(O)COC(=O)C(=C)C)cc2)cc1 (stereo not given)	inconclusive: 54.9 µM [cytotoxic, single point]	
Cc1cccc(N(C)C(=S)Oc2ccc3ccccc3c2)c1	inconclusive: 27.5 µM [cytotoxic, partial curve] and inconclusive: 15.1 µM [cytotoxic, partial curve, poor fit]	
COC(=O)c1ccc(C(=O)OC)c(C(=O)OC)c1	inconclusive: 21.9 µM [rising, partial curve]	
CCC(=O)Nc1ccc(O)cc1		inactive: 9.12% [at 35.3 µM]

SMILES	Potency	activity change, negative = cytotoxicity
CC1(C)CCC[C@]2(C)[C@H]3CC(=O)O[C@]3(C)CC[C@@H]12	inconclusive: 49 µM [cytotoxic, partial curve]	
Cc1oc(-c2ccccc2)nc1CCOc1cccc2c1ccn2CCC(=O)O	inconclusive: 9.77 µM [cytotoxic, partial curve, poor fit]	
c1ccc2c(c1)ccc1cc3c(ccc4ccccc43)cc12	inactive	
O=Cc1c2ccccc2c(Cl)c2ccccc12	inconclusive: 10.7 µM [rising, partial curve, poor fit]	
CCCCCCCCCCCCOCCOCCOCCOCCOCCOCCOCCOCCOCCO	active: 16.9 µM	
CCC1=C[C@@H]2CN(C1)Cc1c([nH]c3ccccc13)[C@@](C(=O)OC)(c1cc3c(cc1OC)N(C)[C@H]1[C@@](O)(C(=O)OC)[C@H](OC(C)=O)[C@]4(CC)C=CCN5CC[C@]31[C@@H]54)C2	inconclusive: 0.0338 µM [rising, full curve, poor fit]	
CCCCC/C(=C\c1ccccc1)CO	inconclusive: 43.1 µM [cytotoxic, partial curve]	
COCCCOCCCOC		inactive: 9.77%
CCCCOc1ccc(C(=O)CCN2CCCCC2)cc1	inconclusive: 12 µM [cytotoxic, partial curve]	
CCCCCOc1ccccc1/C(=C\SC)n1ccnc1	inconclusive: 26.8 µM [cytotoxic, single point]	
C=C[C@](C)(O)CC[C@@H]1[C@@]2(C)CCCC(C)(C)[C@@H]2CC[C@@]1(C)O	active: 43.6 µM	
CC[C@@]1(O)C(=O)OCc2c1cc1n(c2=O)Cc2cc3c(CN(C)C)c(O)ccc3nc2-1	inconclusive: 2.68 µM [cytotoxic, full curve]	
O=Cc1ccc(Cl)c(Cl)c1		inactive: -2.56%
Nc1ncnc2c1ncn2[C@@H]1O[C@H](CO)[C@@H](O)[C@H]1O		inactive: 15.2% [at 35.3 µM]
Oc1ccc(Cl)cc1Sc1cc(Cl)ccc1O	active: 43.6 µM and inconclusive: 37.9 µM [cytotoxic, partial curve, poor fit]	
CN1CCC(=C2c3ccccc3CCc3sccc32)CC1	inconclusive: 9.52 µM [cytotoxic, partial curve]	
CCCCCCCCCCCCCCCBr		inactive: 2.71% [at 35.3 µM]
CN(C)c1ccc(N=Nc2ccccc2C(=O)O)cc1	inconclusive: 13.8 µM [rising, full curve]	
O=C1Nc2ccc(Cl)cc2[C@@](C#CC2CC2)(C(F)(F)F)O1	inconclusive: 26.8 µM [cytotoxic, single point]	
CNc1ccc([N+](=O)[O-])cc1	inconclusive: 0.491 µM [cytotoxic, single point]	
